Results as given in PubChem BioAssay AID624296 (National Center for Advancing Translational Sciences (NCATS), 2012).
Hit rate of the full screen: of about 350,000 compounds, about 9,900 (2.8%) were called active. Inconclusive means that the source gave no clear call. Such entries were picked first, then a sample of the others. Calls come from the whole dose curve; as a rule, active = well fitted activation curve with a large enough effect; inconclusive = small, poorly fitted or top-dose-only effect; inactive = no such curve, though single readings can be large or run the other way. Potencies of inconclusive entries are left out as doubtful fits.

Experiment: A quantitative high throughput screen for small molecules that induce DNA re-replication in MCF 10a normal breast cells. For activity, positive = re-replication: % of control where 0% means no effect. Note: nearly all actives have a fitted effect of over 50% in size.
Conditions: MCF 10A DNA re-replication, Hoechst nuclear intensity, 48 h; activity, positive = re-replication: at 46.1 µM (top of the series)
Potency is the fitted concentration of half-maximal effect; tags give direction and shape of the fitted curve.

Row | Structure (SMILES) | Potency | activity, positive = re-replication
1 | N#C/C(=C\c1ccc(OCc2ccc(Br)cc2)cc1)C(=O)Nc1cccc(C(=O)O)c1 | inconclusive [activator, partial curve, poor fit] | 
2 | COC(=O)c1c(NC(=O)CSc2ncnc3[nH]ncc23)sc2c1CCC2 | inconclusive [activator, partial curve, poor fit] | 
3 | OC(COc1ccc(CNCCc2ccc(C(F)(F)F)cc2)cc1)CN1CCCCC1 (stereo unspecified) | inconclusive [activator, single point] | 
4 | CN(C)S(=O)(=O)c1cccc(-c2nn(-c3ccccc3)cc2/C=C(/C#N)C(=O)NCc2ccco2)c1 | inconclusive [activator, full curve, poor fit] | 
5 | O=C(Cc1ccccc1)NC(Nc1cccc2ccccc12)C(Cl)(Cl)Cl (stereo unspecified) |  | inactive: 6.36%
6 | CCOC(=O)CN1N=C(/C=C/c2ccccc2)CCC1=O |  | inactive: 1.03%
7 | Cc1ccc(N2C(=O)/C(=C/c3ccco3)SC2=S)cc1 | inconclusive [activator, full curve, poor fit] | 
8 | CCOC(=O)C1CCN(S(=O)(=O)c2ccc3c(c2)N(C)C(=O)CC(=O)N3C)CC1 | inconclusive [activator, single point] | 
9 | COc1ccc(NC(=O)CSc2nnc(-c3cccs3)n2-c2ccccc2)cc1 | inconclusive [activator, partial curve, poor fit] | 
10 | COc1ccc(OC)c(NC(=O)CN(c2ccc(C(C)C)cc2)S(=O)(=O)c2c(C)noc2C)c1 |  | inactive: 12.2%
11 | CC1(C)COC(c2ccc3c(c2)OCO3)OC1 |  | inactive: -0.914%
12 | CN1CCN(C(=S)c2ccc(-c3cccc(Cl)c3Cl)o2)CC1 | inconclusive [activator, single point] | 
13 | Oc1c(C=NCc2ccccc2)sc2ccccc12 | inconclusive [activator, single point] | 
14 | CCOc1ccc(C(=O)Nc2ccc3[nH]ncc3c2)cc1 |  | inactive: -3.18%
15 | OC(COc1ccc2cc(Br)ccc2c1)CN1CCCC1 (stereo unspecified) | inconclusive [activator, partial curve] | 
16 | O=C(COC(=O)c1ccc(Br)o1)Nc1nc2c(F)c(F)c(F)cc2s1 | inconclusive [activator, partial curve, poor fit] | 
17 | O=C(O)c1ccccc1C(c1ccc(O)cc1)c1ccc(O)cc1 | inconclusive [activator, single point] | 
18 | Nc1ccc(-c2nc3ccc(-c4nc5ccccc5o4)cc3[nH]2)cc1 | active: 3.98 µM | 
19 | COc1cc2c(c(OC)c1OC)-c1ccc(SC)c(=O)cc1C(N)CC2 (stereo unspecified) |  | inconclusive: 79.9% [activator]
20 | CC(=O)Oc1ccc(-c2csc(Nc3cccc(C)n3)n2)cc1 | inconclusive [activator, single point] | 
21 | CC(C)C(C(=O)NCC1CCCO1)N(Cc1ccco1)C(=O)CNS(=O)(=O)c1ccc(F)cc1 (stereo unspecified) | inconclusive [activator, partial curve, poor fit] | 
22 | COc1cc(/C=C(\C#N)c2nc3ccccc3[nH]2)cc(OC)c1O | inconclusive [activator, single point] | 
23 | CC1=C(C(=O)OCC2CCCO2)C(c2ccccc2)NC(=O)N1 (stereo unspecified) | inconclusive [activator, single point] | 
24 | COc1cc(C[C@@H](C)[C@@H](C)Cc2ccc(O)c(OC)c2)ccc1O | inconclusive [activator, partial curve, poor fit] | 

Row | Structure (SMILES) | Potency | activity, positive = re-replication
25 | COc1ccc(Br)c(C(=O)NCC2CCCCC2)c1 |  | inactive: -10.5%
26 | CCc1ccc(Nc2ncccc2C#N)cc1 |  | inactive: 0.204%
27 | COc1ccc(-c2cccc(-c3cc(=O)oc4cc5c(cc34)OCO5)c2)cc1 | inconclusive [activator, partial curve, poor fit] | 
28 | CCOC(=O)C1(CCOc2ccccc2)CCN(Cc2cc(OC)c(O)c(OC)c2)CC1 | inconclusive [activator, single point] | 
29 | COc1ccc(-c2nc3ccccc3c(=O)n2CCOc2cccc(C)c2C)cc1 | inconclusive [activator, partial curve, poor fit] | 
30 | Cc1cc(C)c(NC(=O)COC(=O)c2c(C)noc2C)c(Cl)c1 |  | inactive: 17%
31 | CC(=O)N1CCN(CC(=O)c2ccc(Br)cc2)CC1 | inconclusive [activator, single point] | 
32 | N#Cc1ccc(/C=C/C(=O)c2ccccc2)cc1 | active: 20.6 µM | 
33 | COc1cc2c(cc1NC(=O)CSc1nc3ccccc3[nH]1)oc1ccccc12 | inconclusive [activator, partial curve, poor fit] | 
34 | CCN(CC(=O)Nc1c(F)cccc1F)C(=O)/C=C/c1ccc2c(c1)OCO2 | inconclusive [activator, full curve, poor fit] | 
35 | COCCCNC(=O)c1cc(C(=O)c2c(-c3c(Cl)cccc3Cl)noc2C)c[nH]1 | inconclusive [activator, single point] | 
36 | Cc1ccc(/C=N/Nc2cccc(C(=O)O)c2)s1 | inconclusive [activator, single point] | 
37 | COc1ccc(C(=O)Nc2ccc(CN3CCOCC3)cc2)cc1Br |  | inactive: 12.5%
38 | COc1cc2ccccc2cc1C(=O)Nc1ccc(Cc2ccncc2)cc1 | active: 20.6 µM | 
39 | O=[N+]([O-])c1cccnc1SCc1ccccc1 |  | inactive: 8.82%
40 | CCOC(=O)c1cc2c(=O)n3ccccc3nc2n(Cc2ccco2)c1=NC(=O)c1cccc(OC)c1 | inconclusive [activator, single point] | 
41 | O=[N+]([O-])c1cc(S(=O)(=O)N2CCCCCC2)ccc1Cl | active: 16.4 µM | 
42 | COc1cccc(CC(=O)OCC(=O)NC2CCCC2)c1 |  | inactive: 6.46%
43 | CCN1c2ccccc2-c2nc3ccccc3n2C1c1cccs1 (stereo unspecified) | inconclusive [activator, single point] | 
44 | NC(=O)c1cc2cc(Cc3ccccc3Cl)ccc2oc1=O | inconclusive [activator, single point] | 
45 | CC(C)OCCCNC1=C(Cl)C(=O)c2ccccc2C1=O | inconclusive [activator, full curve, poor fit] | 
46 | CC(=O)C1=C(c2ccccc2)NC(=O)NC1c1cccs1 (stereo unspecified) | inconclusive [activator, partial curve, poor fit] | 
47 | Cc1cccc(NC(=S)NNC(=O)c2sccc2C)c1 |  | inactive: 5.28%
48 | Cc1cc(C)cc(NC(=O)Cn2nnc(C(=O)NCc3ccc(F)cc3)c2N)c1 | inconclusive [activator, single point] | 

Row | Structure (SMILES) | Potency | activity, positive = re-replication
49 | CN(C)CCNC(=O)c1cccc2nc3cccc(F)c3nc12 | inconclusive [activator, partial curve] | 
50 | CN(C)c1ccc(N2CN=C3SCC(=O)N3C2)cc1 | inconclusive [activator, single point] | 
51 | O=C(Nc1cccc(C(F)(F)F)c1)Nc1ccon1 |  | inactive: 19.7%
52 | COc1ccc(Br)cc1CN1CCC(N2CCCC2)CC1 | active: 23.1 µM | 
53 | COC(=O)c1ccccc1NC(=O)c1cc2sccc2n1C | inconclusive [activator, single point] | 
54 | COc1cccc(CC(=O)NNC(=O)CN(C)S(=O)(=O)c2ccc(C)cc2)c1 |  | inactive: 3.25%
55 | O=C(Nc1nc2cc3c(cc2s1)OCCO3)c1ccc(N2C(=O)CCC2=O)cc1 |  | inactive: -2.12%
56 | O=[N+]([O-])c1ccc(-c2nc3ccc([N+](=O)[O-])cc3[nH]2)cc1 | inconclusive [activator, partial curve, poor fit] | 
57 | CC(C)CCN1CCN(Cc2cccc(C(F)(F)F)c2)CC1CCO (stereo unspecified) |  | inactive: -2.69%
58 | CC(=O)OCC(OC(C)=O)C(OC(C)=O)C(OC(C)=O)C(=O)Nc1ccccc1 (stereo unspecified) | inconclusive [activator, partial curve, poor fit] | 
59 | O=C(O)c1ccc(Cl)c(NCc2cccnc2)c1 |  | inactive: 15.1%
60 | CS(=O)(=O)N(CC(O)Cn1c2ccccc2c2ccccc21)c1cccc2ccccc12 (stereo unspecified) | active: 16.4 µM | 
61 | CC(C)(C)C(CCl)C(=O)NN=C(c1ccccc1)c1ccccc1 (stereo unspecified) | inconclusive [activator, single point] | 
62 | Cc1cccn2c(=O)c3cc(S(=O)(=O)c4ccc(F)cc4)c(=N)n(Cc4ccco4)c3nc12 | inconclusive [activator, partial curve] | 
63 | CCC(CC)NC(=O)c1cc2c(C)nn(Cc3ccccc3Cl)c2s1 | inconclusive [activator, single point] | 
64 | CC1(C)CC2(C)OC(=N)C1(C#N)C2(C#N)C#N (stereo unspecified) | active: 23.1 µM | 
65 | CN(C)CCOc1ccc(-c2c(-c3ccsc3)sc3ccccc23)cc1 | inconclusive [activator, full curve] | 
66 | CC(=O)c1cccc(NC(=O)c2ccc(NC(=O)CCS(=O)(=O)c3cccs3)cc2)c1 |  | inactive: -5.6%
67 | CCN(CC)CCNC(=O)C1(c2ccccc2)CCCCC1 |  | inactive: -0.752%
68 | CCOC(=O)CSC1=C(C#N)C(c2ccccc2OCC)C(C(=O)OCC)C(=O)N1 (stereo unspecified) | inconclusive [activator, single point] | 
69 | CCN(CC)c1ccc(NC(=O)CN2CCN(CC(=O)Nc3ccc(F)cc3)CC2)cc1 |  | inactive: 3.56%
70 | O=C(NCc1ccccc1)C(c1ccc(F)cc1)N(C(=O)c1csnn1)C1CCCC1 (stereo unspecified) | inconclusive [activator, partial curve, poor fit] | 
71 | Cc1ccc(S(=O)(=O)NN2C(=O)/C(=C/c3ccc(F)cc3)SC2=S)cc1 | inconclusive [activator, partial curve, poor fit] | 
